Experimental data published in PubChem BioAssay AID2528 (National Center for Advancing Translational Sciences (NCATS), 2010).
The whole screen tested about 350,000 compounds, of which about 700 (0.2%) were called active. This list was built around the results that the source calls inconclusive (neither active nor inactive); the mix of calls is not that of the screen. Calls follow the shape of the dose curve; as a rule, active = well fitted inhibition curve with a large enough effect; inconclusive = small, poorly fitted or top-dose-only effect; inactive = flat fitted curve, though single readings scatter. No potency is given beside an inconclusive call; the fits are too rough. Where a structure was tested more than once in an assay, its records may differ in their call.

biological target: RecQ-like DNA helicase BLM (Homo sapiens) (UniProt P54132); test: qHTS Assay for Inhibitors of Bloom's syndrome helicase (BLM); conditions: recombinant BLM DNA unwinding, fluorescence dequenching; series mostly up to 56.1 µM; activity change, negative = inhibition: at the top concentration; also: nearly all actives have a fitted effect of over 35% in size;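 as to activity change, negative = inhibition: plate controls were vehicle for no effect and no enzyme for full effect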
Chain of UniProt P54132 (P54132 whole entry, looked up): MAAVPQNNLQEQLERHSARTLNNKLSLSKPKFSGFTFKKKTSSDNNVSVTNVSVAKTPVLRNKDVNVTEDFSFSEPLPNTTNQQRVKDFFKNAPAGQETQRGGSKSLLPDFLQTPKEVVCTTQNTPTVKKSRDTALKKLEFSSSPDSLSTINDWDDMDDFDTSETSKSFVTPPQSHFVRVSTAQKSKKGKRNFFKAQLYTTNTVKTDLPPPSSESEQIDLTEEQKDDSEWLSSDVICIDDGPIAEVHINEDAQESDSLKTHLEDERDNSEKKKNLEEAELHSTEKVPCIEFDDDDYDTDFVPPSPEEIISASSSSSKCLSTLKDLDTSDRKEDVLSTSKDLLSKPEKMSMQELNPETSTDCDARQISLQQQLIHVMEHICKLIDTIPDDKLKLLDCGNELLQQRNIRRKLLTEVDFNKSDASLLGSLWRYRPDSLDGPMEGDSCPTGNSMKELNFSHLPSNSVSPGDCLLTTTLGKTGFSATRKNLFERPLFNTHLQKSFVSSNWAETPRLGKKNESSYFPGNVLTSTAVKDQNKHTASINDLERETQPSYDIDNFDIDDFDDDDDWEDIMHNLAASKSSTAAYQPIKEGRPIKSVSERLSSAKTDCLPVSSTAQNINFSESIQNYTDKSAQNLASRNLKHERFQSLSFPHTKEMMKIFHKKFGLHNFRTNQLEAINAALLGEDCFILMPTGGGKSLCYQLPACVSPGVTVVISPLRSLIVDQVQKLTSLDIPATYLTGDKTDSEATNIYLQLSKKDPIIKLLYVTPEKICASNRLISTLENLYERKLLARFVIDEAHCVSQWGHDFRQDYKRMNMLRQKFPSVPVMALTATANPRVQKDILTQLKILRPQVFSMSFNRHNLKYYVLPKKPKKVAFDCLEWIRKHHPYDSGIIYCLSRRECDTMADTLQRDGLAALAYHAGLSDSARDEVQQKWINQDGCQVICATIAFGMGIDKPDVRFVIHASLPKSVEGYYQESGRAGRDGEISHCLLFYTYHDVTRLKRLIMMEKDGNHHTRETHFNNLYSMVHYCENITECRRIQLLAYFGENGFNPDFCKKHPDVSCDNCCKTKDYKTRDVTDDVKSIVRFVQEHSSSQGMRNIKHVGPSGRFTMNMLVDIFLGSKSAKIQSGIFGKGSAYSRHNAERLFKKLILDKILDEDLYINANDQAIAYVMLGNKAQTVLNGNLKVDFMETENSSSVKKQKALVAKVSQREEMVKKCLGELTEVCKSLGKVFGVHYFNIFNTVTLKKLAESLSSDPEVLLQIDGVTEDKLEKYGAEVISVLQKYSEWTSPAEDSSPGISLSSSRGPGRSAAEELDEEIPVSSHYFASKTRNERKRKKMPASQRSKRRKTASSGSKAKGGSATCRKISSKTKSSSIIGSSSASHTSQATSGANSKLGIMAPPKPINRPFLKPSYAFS
Potency is read from the fitted curve at half-maximal effect; tags tell the direction and shape of the fitted curve.

SMILES	Potency	activity change, negative = inhibition
Cc1cc(=O)c2c(O)c3c(O)cc(=O)c4c3c3c(cc(O)c1c23)C(C)(C)C=4O	active: 7.08 µM	
O=C(Nc1nc2c(F)cc(F)cc2s1)c1ccc2c(c1)OCCO2		inactive: -2.62%
Cc1cc2c(N)cccc2nn1	active: 5.62 µM	
Cc1cccc(OCC(=O)NCC2(N3CCN(C)CC3)CCCCC2)c1C		inactive: 2.38%
CCCCCCCCCCCCCCCC(=O)OCC(O)C1OC(=O)C(O)=C1O (configuration not stated)	inconclusive [inhibitor, single point]	
O=C(N/N=C/c1c[nH]c2ccccc12)c1ccc(Cl)cc1		inactive: -10.4%
Cc1cc2[nH]c3c(c[n+](C)c4ccccc34)c2cc1C	inconclusive [inhibitor, partial curve, poor fit]	
Nc1ccc(C(=O)N/N=C/c2cn(Cc3ccc(F)cc3)c3ccccc23)cc1		inactive: -13%
O=C1NC(=O)/C(=C/c2cccc(O)c2)N1	inconclusive [inhibitor, partial curve]	
O=Cc1ccccc1C=O	inconclusive [inhibitor, single point]	
CC1(C)Cc2c(C#N)c(N3CCN(C(=O)c4ccccc4Cl)CC3)nc(-c3ccco3)c2CS1	active: 14.1 µM	
Cc1ccc(Nc2nc(N)c([N+](=O)[O-])c(NCc3ccco3)n2)cc1C	inconclusive [inhibitor, single point]	
C=CCN(CC=C)C(=S)Nc1ccc2nsnc2c1	active: 3.55 µM	
CCC(C)Sc1nc2c(cnn2-c2ccc(C)c(C)c2)c(=O)[nH]1 (configuration not stated)		inactive: 2.85%
Nc1nonc1-c1nc2ccccc2n1CC(=O)N/N=C/c1ccc(-c2cccc(C(=O)O)c2)o1	inconclusive [inhibitor, single point]	
COc1ccc(CN2C(=O)c3cccnc3C2Nc2cc(Cl)c(OC)cc2OC)cc1 (configuration not stated)		inactive: -2.86%
COc1cccc(C(=O)Nc2ccc(C(=O)OCc3cc(=O)n4cc(C)sc4n3)cc2)c1	inconclusive [inhibitor, single point]	
CCOc1ccc(S(=O)(=O)NCCc2csc3nc(-c4cccc(C)c4)nn23)cc1		inactive: -1.41%
CN1c2cc3c(cc2N=C(c2ccc(C(=O)O)cc2)c2ccccc21)C(C)(C)CCC3(C)C	inconclusive [inhibitor, single point]	
CC(=O)N(Cc1cccnc1)c1nc2c(C)c(C)ccc2s1		inactive: 1.08%
Cc1cccc(NC(=O)c2c(NC(=O)C(F)(F)F)sc3c2CCCCC3)c1	inconclusive [inhibitor, single point]	
CNC(=S)NC1CC2CCC(C1)N2Cc1ccccc1 (configuration not stated)		inactive: -5%
COC(=O)c1ccc(COc2ccc(/C=N/Nc3nc(C)cc(=O)[nH]3)cc2)cc1	inconclusive [inhibitor, partial curve]	
O=[N+]([O-])c1cc(CN2CCCC2)c2cccnc2c1O	inconclusive [inhibitor, partial curve]	

SMILES	Potency	activity change, negative = inhibition
CC(=O)Nc1cc(C(=O)NCc2ccco2)ccc1Sc1ccc(F)cc1	inconclusive [inhibitor, partial curve]	
COc1ccc([C@H]2Oc3cc(O)cc(O)c3C(=O)C2[C@@H]2C(=O)c3c(O)cc(O)cc3O[C@@H]2c2ccc(OC)cc2)cc1 (some centres not stated)	inconclusive [inhibitor, partial curve]	
CCCCCCCCCCCC(=O)OCC(O)C1OCC(O)C1O (configuration not stated)		inactive: -5.43%
CC(C)(Oc1ccc(-c2ccco2)cc1)C(=O)O		inactive: 2.61%
COc1cccc(NC(=O)Cn2c(CCC(=O)O)ccc2-c2ccc(Cl)cc2)c1		inactive: 2.96%
CSc1ccc(-c2ccco2)nn1	inconclusive [inhibitor, partial curve]	
O=C(c1ccc(-c2ccccc2)cc1)C1CCCN(Cc2ccncc2)C1 (configuration not stated)	inconclusive [inhibitor, single point]	
CCCCc1cc(=O)oc2cc(C)c(CN3CCCC3)c(O)c12	inconclusive [inhibitor, partial curve]	
CCOc1cccc(CNc2ccc(O)cc2)c1OCc1ccc(Cl)cc1Cl	inconclusive [inhibitor, single point]	
Oc1ccc(N=Cc2ccc(O)c(O)c2)cc1	active: 28.2 µM	
CC(C)(C)c1cc(C(=O)/C=C/c2ccc(C(=O)O)cc2)cc(C(C)(C)C)c1	inconclusive [inhibitor, single point]	
O=C(NNc1cc(N2CCOCC2)nc(N2CCOCC2)n1)c1ccc([N+](=O)[O-])cc1	inconclusive [inhibitor, single point]	
CCNc1ccc(C(=O)OCC(=O)NCCN2C(=O)CSC2=O)cc1[N+](=O)[O-]		inactive: -0.13%
O=C(COc1ccccc1[N+](=O)[O-])N/N=C/C=C/c1ccco1	inconclusive [inhibitor, single point]	
Cc1ccc(C(c2sc3nc(C)nn3c2O)N2CCOCC2)cc1 (configuration not stated)		inactive: 0.0397%
CC(C)(C)N1C(=O)Cc2c1nc(N)c1c(N)nc(N3CCCCC3CO)c(C#N)c21 (configuration not stated)	inconclusive [inhibitor, single point]	
Oc1ccc(NCc2ccccc2OCc2ccccc2F)cc1	active: 28.2 µM	
COc1cccc(-c2cn3c(n2)sc2cc(C(=O)NCCc4ccc(OC)c(OC)c4)ccc23)c1		inactive: 1.39%
CCSc1cnn(-c2ccccc2)c(=O)c1SCC	inconclusive [inhibitor, single point]	
CN1CCN(c2ccc(Nc3c4ccccc4nc4ccccc34)cc2)CC1	active: 20 µM	
COc1ccc(C(=O)Nc2ccnn2C2CCN(Cc3ccc4nonc4c3)CC2)cc1		inactive: -7.61%
COc1ccc(/C=N/NC(=O)c2cccc(NC(=O)c3ccc(Cl)cc3)c2)c(OC)c1	inconclusive [inhibitor, single point]	
O=C1CC(N2CCOCC2)=NN1c1ccc([N+](=O)[O-])cc1	inconclusive [inhibitor, partial curve]	
CCc1ccc(CNc2ccc(O)cc2)cc1	inconclusive [inhibitor, single point]	

SMILES	Potency	activity change, negative = inhibition
O=C1SC(Nc2ccc(Cl)cc2)C(=O)N1Cc1ccccc1 (configuration not stated)		inactive: -9.97%
CCCC1=NN2C(=N)/C(=C\c3ccc(SCc4ccco4)o3)C(=O)N=C2S1	inconclusive [inhibitor, partial curve]	
Cc1nccn1CCC1CCCCN1C(=O)CCc1nnc(-c2ccsc2)o1 (configuration not stated)	inconclusive [inhibitor, partial curve]	
O=C1C=C(Nc2cccc3cccnc23)c2ccccc2C1=O	inconclusive [inhibitor, single point]	
CCc1ccc(/C=C2/SC(=S)N(CCC(=O)Nc3ccc(C(=O)O)cc3)C2=O)cc1	inconclusive [inhibitor, single point]	
Cc1c(/C=N/Nc2nc3ccccc3[nH]2)c2ccccc2n1C	inconclusive [inhibitor, single point]	
O=C(CSc1nc2scc(-c3ccco3)c2c(=O)n1-c1ccccc1)NCC1CCCO1 (configuration not stated)	active: 14.1 µM	
Cc1ccc(-c2ccc(C3C(C#N)=C(N)Oc4n[nH]c(C)c43)o2)cc1 (configuration not stated)	inconclusive [inhibitor, partial curve]	
O=C(O)COc1ccc(/C=C/C(=O)c2ccc(C3CCCCC3)cc2)cc1	inconclusive [inhibitor, single point]	
COc1cccc2c1C(=O)c1c(O)c3c(c(O)c1C2=O)C[C@@](O)(C(=O)CO)C[C@@H]3O[C@@H]1C[C@H](N)[C@H](O)[C@H](C)O1	active: 25.1 µM	
CC[n+]1c(/C=C(\C)OC)sc2ccccc21		inactive: -0.772%
O=C1C(Cl)=C(NCCN2CCCCC2)C(=O)c2ccccc21	inconclusive [inhibitor, single point]	
O=C(O)c1cc(Oc2ccc([N+](=O)[O-])cc2)cc(Oc2ccc([N+](=O)[O-])cc2)c1		inactive: -3.04%
Cc1csc2c(=O)sc(NC(=O)c3cccs3)nc12	inconclusive [inhibitor, single point]	
COc1ccc(C(C[N+](=O)[O-])c2c(C)[nH]n(-c3ccccc3)c2=O)cc1 (configuration not stated)	inconclusive [inhibitor, single point]	
CCN(CC)CCCNC(=O)Cn1c(-c2cccs2)cc2cc(Cl)ccc21		inactive: -5.87%
CCOc1cc(/C=C(/C#N)c2nc3ccccc3[nH]2)ccc1OCc1ccc(C(=O)O)o1	inconclusive [inhibitor, single point]	
Nc1ncnc2nc(-c3ccc(N4CCOCC4)nc3)cc(-c3cccc(Br)c3)c12	inconclusive [inhibitor, single point]	
COc1ccc(-n2c(NC(=O)c3ccc(Br)o3)c(C#N)c3nc4ccccc4nc32)cc1	inconclusive [inhibitor, single point]	
O=C(O)c1cc(=O)c2c3nc4ccccc4oc-3cc(=O)c2[nH]1	inconclusive [inhibitor, single point]	
N#Cc1c(-c2ccco2)cc(-c2ccccc2)[nH]c1=O	inconclusive [inhibitor, single point]	
COc1ccc(CNc2ncnc3c2[nH]c2cc(OC)c(OC)cc23)cc1	inconclusive [inhibitor, partial curve]	
COc1ccc(-c2c(-c3ccc(OCC(=O)NN)cc3O)n[nH]c2C(F)(F)F)cc1	active: 12.6 µM	
Cc1cccn2c(=O)cc(CSc3nnc(NC(=O)COc4ccccc4)s3)nc12	inconclusive [inhibitor, single point]	
